According to PubChem BioAssay AID1347120 (National Center for Advancing Translational Sciences (NCATS), 2019):
The campaign covered roughly 390,000 compounds. About 930 (0.24%) were called active. The inconclusive results got no clear call from the source; some entries with a clear call stand among them for comparison. Calls come from the whole dose curve; as a rule, active = well fitted activation curve with a large enough effect; inconclusive = small, poorly fitted or top-dose-only effect; inactive = no such curve, though single readings can be large or run the other way. Where the call is inconclusive, the potency comes from a doubtful curve fit.

Assay: qHTS for Suppressors of FUS Proteinopathy: Primary screen using FUS-linked yeast assay; note: nearly all actives have a fitted effect of over 55% in size;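 for growth rescue (activation): plate controls were DMSO vehicle for no effect and reference control for full effect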
Details: S. cerevisiae FUS-expressing, OD600, 24 h; Potency: growth rescue; growth rescue (activation): at 76.6 µM (top of the series)
Summary of the method: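 Galactose (2%) drives FUS expression in yeast precultured in raffinose; seeding density OD 0.005. Test compounds incubated 24hr at 30C and 99% humidity before absorbance at 600 nm was measured.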
Potency is the fitted concentration of half-maximal effect; tags give direction and shape of the fitted curve.

Q: With `Cc1ccc(C(=O)/C=C/C(=O)O)cc1` as the molecule, how does the “growth rescue (activation)” value read?
A: inactive: -20.6%

Q: With `C=CCOc1c(Cl)cc(CNCCC)cc1Cl` as the molecule, how does the “growth rescue (activation)” value read?
A: inactive: 12.4%

Q: Which Potency does the source give for `COc1ccc(-c2cc3n(n2)CCc2nc4ccccc4n2-3)cc1` here?
A: inconclusive: 28.2 µM [activator, single point]

Q: With `CCOC(=O)c1cccc2c1-c1ccccc1/C2=N/O` as the molecule, how does the “growth rescue (activation)” value read?
A: inactive: -1.22%

Q: For `CC(C)Oc1cccc(C2CC(=O)Nc3cc4c(cc32)OCO4)c1` (configuration not stated), which “growth rescue (activation)” value is on record?
A: inactive: -6.79%

Q: Which Potency does the source give for `CC1Cc2ccccc2N1C(=O)CSc1nc2c(c(=O)n(C)c(=O)n2C)n1Cc1ccccc1` (configuration not stated) here?
A: inconclusive: 12.6 µM [activator, partial curve, poor fit]

Q: For `COc1ccc(C2CCC3(CCC(=O)N3CCOC(=O)NCc3ccc(Cl)cc3)CC2)cc1` (configuration not stated), which Potency is on record?
A: inconclusive: 31.6 µM [activator, single point]

Q: With `CC(C)CCn1nnc2sc(-c3ccccc3)cc2c1=O` as the molecule, how does the “growth rescue (activation)” value read?
A: inactive: 8.86%

Q: For `Cc1ccc(Cl)cc1N1CCN(C(=O)CCCn2c(=O)[nH]c3ccc(Br)cc3c2=O)CC1`, which Potency is on record?
A: inconclusive: 22.4 µM [activator, partial curve]

Q: Which Potency does the source give for `COc1ccccc1N1C(=O)C=C(Sc2nc(C)cc(C)n2)C1=O` here?
A: inconclusive: 28.2 µM [activator, partial curve, poor fit]

Q: With `COc1cccc(C(c2c(C)[nH]n(-c3ccccc3)c2=O)c2c(C)[nH]n(-c3ccccc3)c2=O)c1O` as the molecule, how does the Potency read?
A: inconclusive: 39.8 µM [activator, single point]

Q: With `CCOC(=O)C1=CN(Cc2cccc(F)c2)S(=O)(=O)N(CC)C1c1cccc(OC)c1` (configuration not stated) as the molecule, how does the Potency read?
A: inconclusive: 12.6 µM [activator, partial curve, poor fit]

Q: With `Nc1c(C(=O)N/N=C/c2cccnc2)oc2nc(-c3ccco3)cc(-c3ccco3)c12` as the molecule, how does the Potency read?
A: inconclusive: 35.5 µM [activator, single point]

Q: With `Cc1ccc(C(=O)Nc2cccc(Oc3ccccc3)c2)o1` as the molecule, how does the Potency read?
A: inconclusive: 28.2 µM [activator, partial curve, poor fit]

Q: With `CN(C)c1ccc(CNC(=O)c2ccc(NC(=O)N3CCCCc4ccccc43)cc2)cc1` as the molecule, how does the Potency read?
A: inconclusive: 50.1 µM [activator, single point]

Q: Which “growth rescue (activation)” value does the source give for `CC(C)(C)c1ccc(Oc2ccc(NC(=O)CCC(=O)OCC(=O)c3ccccc3)cc2)cc1` here?
A: inactive: 8.08%

Q: Which Potency does the source give for `CCOc1ccc(CCNC(=O)CN2C(=O)COc3ccc(S(=O)(=O)N4CCCCCC4)cc32)cc1` here?
A: inconclusive: 22.4 µM [activator, partial curve]

Q: Which Potency does the source give for `CCOC(=O)[C@]12CCCC=C1N(CCC1=CCCCC1)C(=O)[C@H](CC(=O)N1CCCC1)C2` here?
A: inconclusive: 25.1 µM [activator, partial curve, poor fit]

Q: For `CCOC(=O)[C@@]12CN(C(=O)OC(C)(C)C)CC=C1N(Cc1ccc(OC)cc1)C(=O)[C@H]2CC(=O)NCC12CC3CC(CC(C3)C1)C2`, which “growth rescue (activation)” value is on record?
A: inactive: 9.3%

Q: With `Cc1cccc(-c2nc3c4ccccc4n(CC(=O)Nc4cccc(F)c4)c(=O)n3n2)c1` as the molecule, how does the “growth rescue (activation)” value read?
A: inactive: -9.27%

Q: For `COc1ccc(OC)c(NC(=O)c2ccc3c(=O)n(CCc4ccccc4)c(=S)[nH]c3c2)c1`, which “growth rescue (activation)” value is on record?
A: inactive: 18.1%

Q: With `CCCC(C)NC(=O)COC(=O)c1ccc2c(c1)C(=O)N(Cc1ccco1)C2=O` (configuration not stated) as the molecule, how does the “growth rescue (activation)” value read?
A: inactive: 3.03%

Q: With `CCc1nn2c(=O)cc(COC(=O)c3cccc(NC(=O)COc4ccccc4F)c3)nc2s1` as the molecule, how does the Potency read?
A: inconclusive: 10 µM [activator, single point]

Q: Which Potency does the source give for `Cc1ccc(C)c(NC(=O)Cn2cc(S(=O)(=O)N3CCCC3)c(S(=O)(=O)N3CCCC3)c2)c1` here?
A: inconclusive: 50.1 µM [activator, single point]

Q: With `CCc1cccc(NC(=O)Cn2c(=O)n(Cc3ccccc3)c(=O)c3c(C)c(C(=O)N(C)C)sc32)c1` as the molecule, how does the Potency read?
A: inconclusive: 25.1 µM [activator, partial curve, poor fit]

Q: With `Cn1c(=O)oc2cc(NC(=O)CCl)ccc21` as the molecule, how does the “growth rescue (activation)” value read?
A: inactive: -8.51%

Q: With `CC(C)(C)c1ccc(S(=O)(=O)N2CCCC2C(=O)N2CCN(c3ccccc3)CC2)cc1` (configuration not stated) as the molecule, how does the Potency read?
A: inconclusive: 31.6 µM [activator, partial curve, poor fit]

Q: Which Potency does the source give for `NC(Cc1ccc(C(F)(F)F)cc1)c1csc(NC(=O)NCCc2ccccc2)n1` (configuration not stated) here?
A: active: 22.4 µM

Q: Which growth rescue (activation) does the source give for `CN(CCOc1ccc(Cl)cc1)CC(=O)Nc1ccc(OC(F)F)cc1` here?
A: inconclusive: -59.5% [activator]

Q: With `Cc1ccc(C)c(NC(=O)N2CCc3ccccc3C2)c1` as the molecule, how does the “growth rescue (activation)” value read?
A: inactive: 35%

Q: Which “growth rescue (activation)” value does the source give for `COc1cccc(CNC(=O)CCCn2c(=O)c3cccn3c3ccc(F)cc32)c1OC` here?
A: inactive: 11.6%

Q: For `O=C(c1c[nH]c(C(=O)C(Cl)(Cl)Cl)c1)c1ccc(F)cc1F`, which “growth rescue (activation)” value is on record?
A: inactive: -27.9%

Q: With `COc1ccc(NC(=O)CN2CCN(c3nc(-c4ccc(F)cc4)cs3)CC2)c(OC)c1` as the molecule, how does the Potency read?
A: inconclusive: 20 µM [activator, partial curve, poor fit]

Q: With `CCCCNC(=O)c1nc(C2CCN(S(=O)(=O)c3c(OC)cccc3OC)CC2)oc1-c1ccccc1` as the molecule, how does the “growth rescue (activation)” value read?
A: inactive: 44.5%

Q: Which Potency does the source give for `CCOc1cc2[nH]c(=O)n(CCC(=O)N3CCN(c4ccccc4OC)CC3)c(=O)c2cc1OCC` here?
A: inconclusive: 39.8 µM [activator, single point]

Q: For `COc1ccc(N(C(C)C(=O)Nc2ccc(S(=O)(=O)N3CCCCC3)cc2)S(C)(=O)=O)cc1` (configuration not stated), which Potency is on record?
A: inconclusive: 50.1 µM [activator, single point]

Q: With `NS(=O)(=O)c1ccc(CCNC(=O)CC(NC(=O)c2ccccc2Cl)c2ccccc2)cc1` (configuration not stated) as the molecule, how does the Potency read?
A: inconclusive: 50.1 µM [activator, single point]

Q: For `Clc1ccc(SCc2cc(N3CCOCC3)nc(-c3ccccn3)n2)cc1`, which “growth rescue (activation)” value is on record?
A: inactive: 15.6%

Q: With `CCOc1ccc(-n2c(=O)c3c(C)c(C)sc3n(Cc3c(F)cccc3Cl)c2=O)cc1` as the molecule, how does the “growth rescue (activation)” value read?
A: inactive: -22%

Q: For `COc1ccc(-n2c(O)c(/C=N/NS(=O)(=O)c3cccc([N+](=O)[O-])c3)c3ccccc3c2=O)cc1OC`, which Potency is on record?
A: inconclusive: 14.1 µM [activator, partial curve, poor fit]

Q: For `Cc1[nH]c(-c2ccc(F)cc2)cc1C(=O)N1CCN(c2ccccc2F)CC1`, which Potency is on record?
A: inconclusive: 50.1 µM [activator, single point]

Q: Which “growth rescue (activation)” value does the source give for `CC1(C)N=C(c2ccc(F)cc2)C(=O)N1CC(=O)Nc1ccccc1Cl` here?
A: inactive: -14.2%
